Reference: patent publication US9102752B2, “Peptide vaccine for prevention and immunotherapy of dementia of the Alzheimer's type” (United Biomedical, Inc., priority 2013, dated 2015)

How the values were obtained:
[1] = system: baboon anti-Aβ antibody; assay: Epitope mapping by competitive inhibition ELISA with hyperimmune baboon sera; type: binding, baboons
[2] = system: Peripheral blood mononuclear cells (PBMC); assay: Lymphocyte (PBMC) proliferation, stimulation index, patients; type: cell-based, human; settings: for Stimulation index, Week 0 mean (SD): PBMCs from patient subjects collected at week 0 (before UB 311 immunization); for Stimulation index, Week 0 mean (SD) / Stimulation index, Week 16 mean (SD): coculture with the peptide; for Stimulation index, Week 16 mean (SD): PBMCs from patient subjects collected at week 16 (after UB 311 immunization); for Stimulation index, Difference mean (SD): week 16 vs week 0, PBMCs from patient subjects
Experimental: Peripheral blood mononuclear cells (PBMC) from patients with AD were isolated by Ficoll-hypaque gradient centrifugation. […] Cultures were incubated at 37° C. with 5% CO2 for 72 hours, and then 100 μL of supernatant was removed from each well and frozen at −70° C. for cytokine analysis. Ten μL of culture medium containing 0.5 μCi of ^3H-thymidine (^3H-TdR, Amersham, Cat No. TRK637) was added to each well and incubated for 18 hr, followed by detection of radioisotope incorporation by liquid scintillation counting. The mitogen phytohemagglutinin (PHA) was used as a positive control for lymphocyte proliferation. Cells cultured alone without Aβ peptide or PHA mitogen were used as the negative and positive controls. The stimulation index (SI) was calculated as mean counts per min (cpm) of triplicate experimental cultures with Aβ peptide divided by mean cpm of triplicate negative control cultures; a SI>3.0 was considered a significant proliferation response.
Peripheral blood mononuclear cell samples were isolated from whole blood collected at week 0 (baseline) and week 16 (4 weeks after the third dose) and then cultured in the absence or presence of various Aβ peptides.

[3] = system: Peripheral blood mononuclear cells (PBMC); assay: Cytokine concentrations in patient PBMC cultures (IL-2, IL-6, IL-10, TNF-α, IFN-γ); type: cell-based, human
Experimental: Cytokine analyses (IL-2, IL-6, IL-10, TNF-α, IFN-γ) from the PBMC cultures were performed on aliquots of culture medium with cells alone or in the presence of Aβ peptide domains or PHA. Human-specific cytokine sandwich ELISA kits (U-CyTech Biosciences, Utrecht, The Netherlands) were used to determine the concentrations (pg/mL) of individual cytokines following the manufacturer's instructions. The PBMC samples collected at week 0 and week 16 were also tested for cytokine secretion either with cells alone (negative control) or in the presence of Aβ peptides, p1412 (non-relevant peptide) or PHA mitogen (positive control) after being cultured for 3 days. The quantifiable range of the kit is between 5 and 320 pg/mL. Any measured concentration below 5 pg/mL or above 320 pg/mL was indicated as below quantification limit (BQL) or above quantification limit (AQL), respectively. However, for statistical considerations, BQL or AQL was replaced with the lower (5 pg/mL) or upper (320 pg/mL) quantifiable limit, respectively.
In order to assess the change of cell-mediated immune response after immunization, the change of mean cytokine concentrations from baseline to week 16 was compared with that of the negative controls and examined by paired Wilcoxon signed-rank test.

[4] = system: Peripheral Blood Mononuclear Cells (PBMCs); assay: Cytokine concentration in Cynomolgus macaque PBMC cultures (IL-2, IL-6, IL-10, IL-13, TNF-α, IFN-γ); type: cell-based; settings: PBMC from Cynomolgus macaques, 15 wpi, culture with the peptide or mitogen, mean ± SD
[5] = patient PBMCs collected at week 0, coculture with the peptide, quantifiable range 5-320 pg/mL
[6] = patient PBMCs collected at week 16, coculture with the peptide, quantifiable range 5-320 pg/mL

What does the source list for “SEQ ID NO: 67: LVFF AEDVGSNKGAIIGLMVGGVVIA (LVFFAEDVGSNKGAIIGLMVGGVVIA; PEPTIDE (1)..(26) Abeta 17-42 or APP 770(L688-A713); listed as Homo sapiens) [Aβ17-42]”?
Percent (%) Inhibition ELISA after peptide pre-absorption of sera ([1]; peptide concentration 0.5 μg/mL): 9%; Percent (%) Inhibition ELISA after peptide pre-absorption of sera ([1]; peptide concentration 1 μg/mL): 10%; Percent (%) Inhibition ELISA after peptide pre-absorption of sera ([1]; peptide concentration 2 μg/mL): 5%; Percent (%) Inhibition ELISA after peptide pre-absorption of sera ([1]; peptide concentration 8 μg/mL): 0%; Percent (%) Inhibition ELISA after peptide pre-absorption of sera ([1]; peptide concentration 32 μg/mL): 7%; Stimulation index, Week 0 mean (SD) [2]: 0.96 (0.34); Stimulation index, Week 16 mean (SD) [2]: 1.04 (0.29); Stimulation index, Difference mean (SD) [2]: 0.08 (0.49); Mean cytokine concentration, IFN-γ (Th1), Week 0 [3, 5]: 9.67 pg/mL; Mean cytokine concentration, IL-2 (Th1), Week 0 [3, 5]: 24.59 pg/mL; Mean cytokine concentration, IL-6 (Th2), Week 0 [3, 5]: >44.55 pg/mL; Mean cytokine concentration, IL-10 (Th2), Week 0 [3, 5]: 5.34 pg/mL; Mean cytokine concentration, TNF-α (Both), Week 0 [3, 5]: 15.60 pg/mL; Mean cytokine concentration, IFN-γ (Th1), Week 16 [3, 6]: 13.58 pg/mL; Mean cytokine concentration, IL-2 (Th1), Week 16 [3, 6]: 29.15 pg/mL; Mean cytokine concentration, IL-6 (Th2), Week 16 [3, 6]: 46.90 pg/mL; Mean cytokine concentration, IL-10 (Th2), Week 16 [3, 6]: 5.56 pg/mL; Mean cytokine concentration, TNF-α (Both), Week 16 [3, 6]: 24.78 pg/mL

phytohemagglutinin [PHA] was tested. Which “Cytokine concentration, IL-2” value ([4]; vaccine dose 150 μg) did it give?
The value was 96.1 ± 13.3 pg/mL.

And the “Cytokine concentration, IL-6” value ([4]; vaccine dose 150 μg)?
The value was 70.6 ± 15.7 pg/mL.

What about the “Cytokine concentration, TNF-α” value ([4]; vaccine dose 150 μg) of the same substance?
The value was 96.1 ± 22.2 pg/mL.

And the “Cytokine concentration, IL-2” value ([4]; vaccine dose 750 μg)?
The value was 97.5 ± 6.6 pg/mL.

And the “Cytokine concentration, IL-6” value ([4]; vaccine dose 750 μg)?
The value was 66.2 ± 7.3 pg/mL.

And the “Cytokine concentration, TNF-α” value ([4]; vaccine dose 750 μg)?
The value was 89.0 ± 13.7 pg/mL.

And the “Stimulation index, Week 0 mean (SD)” value [2]?
The value was 28.73 (14.24).

And the “Stimulation index, Week 16 mean (SD)” value [2]?
Its value is 27.75 (32.85).

And the “Lymphocyte proliferation response to agent added to culture” value ([2]; patient PBMC, week 0 and week 16)?
Its value is “positive proliferation responses”.

What about the “Stimulation index, Difference mean (SD)” value [2] of the same substance?
The value was −0.98 (26.57).

And the “Cytokine secretion by patient PBMC in response to agent” value ([3]; change from baseline to week 16 / vs cells alone)?
The value was “significant increases in cytokine production”.

And the “Mean cytokine concentration, IFN-γ (Th1), Week 0” value [3, 5]?
The value was >320.00 pg/mL.

And the “Mean cytokine concentration, IL-6 (Th2), Week 0” value [3, 5]?
The value was >320.00 pg/mL.

What about the “Mean cytokine concentration, IL-10 (Th2), Week 0” value [3, 5] of the same substance?
Its value is 173.83 pg/mL.

And the “Mean cytokine concentration, TNF-α (Both), Week 0” value [3, 5]?
Its value is >313.01 pg/mL.

What about the “Mean cytokine concentration, IFN-γ (Th1), Week 16” value [3, 6] of the same substance?
Its value is >318.91 pg/mL.

What about the “Mean cytokine concentration, IL-6 (Th2), Week 16” value [3, 6] of the same substance?
The value was >320.00 pg/mL.

And the “Mean cytokine concentration, IL-10 (Th2), Week 16” value [3, 6]?
Its value is >162.77 pg/mL.

And the “Mean cytokine concentration, TNF-α (Both), Week 16” value [3, 6]?
Its value is >300.87 pg/mL.
